Measured values published in the supplement of paper PMC11417369.
± gives the standard deviation of the averaged measurements. The list shows a part of the results.

System: PfAP2-G AP2 domain (GST-tagged)
Test: gcPBM binding intensity (ln(normalized median fluorescence intensity)); higher = stronger DNA binding
In short: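 Plasmodium falciparum DNA-binding domains carrying a GST tag were expressed in E. coli and applied for 1 h, at about 25 μg on average, to an Agilent 4 × 180k array. The array held primer-extended double-stranded 36-bp intergenic genomic probes together with negative controls, and binding took place in 1× PBS with 1% milk, 0.2 mg/ml BSA, 0.5% salmon testes DNA and 0.03% Triton X-100. An Alexa488 anti-GST antibody detected bound protein, and the array was scanned at 488 nm. Binding intensity is taken as the highest Masliner-normalised natural-log median intensity across replicate spots of either probe orientation.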

Sequence | gcPBM binding intensity (ln)
TTTTTTGACATTCCTTTTAATAATTAACGAAAGGCA [GTGCAC_negctrl_site377] | 9.94 ± 0.23
ACCATTTGAAAATTCACACACTTTATTTTGTTATAT [CACACA_site5976] | 10.09 ± 0.057
ACTAATATGCAATATTGTACATATATATAGAAATAT [XGTACX_site5273] | 10.9 ± 0.59
TATATAATATTACGTTGTACACTTTAATCTCCCTTC [XGTACX_site5577] | 11.1 ± 0.7
TATAATCAATGCCAAAGTACATATTAATATATTTAT [XGTACX_site4558] | 10.8 ± 0.52
AATATATCGCATAGTTGTACAGAATTTTTACTTTTA [XGTACX_site8192] | 11.1 ± 0.71
ATTGAAAAATAAAAATGTACACATGTAGCATACCAT [XGTACX_site3275] | 11.4 ± 0.65
GAACTAATAATGAAAAGTACACATACACATATATAT [XGTACX_site6789] | 11.3 ± 0.61
CTACCAAATCTATAGACACACATATATATATATATT [CACACA_site2486] | 10.02 ± 0.092
AAATGTATACACATGGTGCGTAATATATTATATATA [GTGCAC_site9877] | 10.2 ± 0.13
AAATACAAGGGACATGCATACCACTATTTTTTAAAT [TGCATGCA_site588] | 10.4 ± 0.3
TTTATATAATAGTTATGTACTTAAACGAAAGATACA [XGTACX_site8495] | 11.2 ± 0.61
TATAGAAAATTTATATGTACATATATATATATATAT [XGTACX_site4451] | 11.4 ± 0.88
TAAAATTTAAGTTATACACACTTAAGTAACATCATC [CACACA_site6395] | 10.2 ± 0.13
GCATATGTATATAATGTGCACATGGATTATATAAAA | 10.4 ± 0.27
TATTTACAGACATGCGCACACATAAATAAATAATAG [CACACA_site2411] | 10.5 ± 0.33
GTTACTGCATACATAACACACATATTCAAAACACAT [CACACA_site3502] | 10.09 ± 0.064
AAAGATATTTTTATCTCACACATATAATATATATAT [CACACA_site5478] | 9.84 ± 0.16
AAAAATTACCTGACTTGTACATAATTTAAGAACAAT [XGTACX_site6233] | 11.1 ± 0.63
ATAATATATTTATAATGTACATAAGAACAAATTAAA [XGTACX_site1745] | 11.1 ± 0.55
GGTATATTAAAATAGGTGCATAAAACTAAGAGAAAA [GTGCAC_site9781] | 10.3 ± 0.24
ACGTTTGATACACATAAAGTTTTCCTTTGAATGTAC [CACACA_negctrl_site106] | 11 ± 0.67
TGTGCTATATTCATATGTACATATAATTATTATATA [XGTACX_site3549] | 11.2 ± 0.72

Sequence | gcPBM binding intensity (ln)
ATAAAATAAAAGTGTACACAAGAAAATATGTTATGT [CACACA_site6033] | 11.6 ± 0.79
TATTTATGAGAAATAGTGCAAAGATATGATCTTTAA | 9.8 ± 0.014
AATTAAAAACATTTCACACATAAAAATGAAATATAT [CACACA_site5199] | 9.84 ± 0.028
TAAAATATATAATAATGTACATATTTTTATTTAGGA [XGTACX_site4987] | 11.2 ± 0.73
AATAATACACAATTTTGTACGTATTTAAAATATATT [XGTACX_site45] | 11.3 ± 0.87
AACTCACATAAATTCACACAAATGTATATTCATATA [CACACA_site4554] | 9.7 ± 0.15
ATTGATCGGATAAAATGTACAAATATATATATATAT [XGTACX_site7345] | 10.8 ± 0.24
ATTTATAATGTGTATACACACATATATAGATTTGCT [CACACA_site6440] | 9.89 ± 0.042
TGATTCTTTTGTATCACACACACTTAGTTTAATTTT [CACACA_site2404] | 10 ± 0.17
ACTTGACACGGACACACACACATATATAAAAAAAAA [CACACA_site4576] | 11.2 ± 0.91
TTTTTTTATTATCATGCACACATTTTTTTTTTTTAC [CACACA_site2253] | 10.07 ± 0.099
TCCTTTATTTTTAAATGTACAAATATTATCTCCTCA [XGTACX_site5856] | 10.8 ± 0.52
ATAATAAAAATAAGAGAATAAAAATGCAATTTAATG [CACACA_negctrl_site878] | 9.65 ± 0.23
TATATATATATATATTGTACACATATATATTTACGA [XGTACX_site4791] | 11.3 ± 0.83
AAATTATAATATAATACACACATAAAAAAAAAATCA [CACACA_site3634] | 9.975 ± 0.049
AAAAAATAATAAATCACACATATTATATATATATAT [CACACA_site5838] | 9.85 ± 0.39
AACATGAAAGATAGCAAAAAAAAAAAAAAAAAAAAA [TGCATGCA_negctrl_site607] | 9.48 ± 0.42
ATTATAATATTGTTATGTACATAAAAATTATTGAAT [XGTACX_site4476] | 11.3 ± 0.73
AAAACATAAATACATACACACATAATATATATTAAT [CACACA_site109] | 10.1 ± 0.21
TCTTTTTTTATTTTATTTTTTTTTTTTAAATAATTC [TGCATGCA_negctrl_site372] | 9.61 ± 0.21
CATATTAATATTATGGGTACATATAAATTTACATTC [XGTACX_site687] | 11.4 ± 0.83
CATATATTATTTATACGTACTAATAAAATAAATCAA [XGTACX_site1030] | 11.3 ± 0.84
TATGATACATAAATATGTACGTATAATATATATTTA [XGTACX_site7002] | 11.4 ± 0.98

Sequence | gcPBM binding intensity (ln)
GTGCATATCTGATATACACACAATAAAATAGTATGT [CACACA_site7203] | 10.02 ± 0.021
AATTATATATTTGAGAGTACATATGTAATGTTTATA [XGTACX_site6970] | 11.2 ± 0.76
ACATATACATATATATGTACATAAATATATATATAT [XGTACX_site8630] | 11.2 ± 0.69
CCCGTAAATTATGAGTGTACGTTATTTTTTAAAATG [XGTACX_site3946] | 11.5 ± 0.95
GAACGTATCATGTGTACACACAAATTGTTTTTTTTT [CACACA_site2020] | 11.7 ± 0.91
AAGAATAATAATAAATGTACACAATATTATATATAT [XGTACX_site5525] | 11.3 ± 0.64
AAATGAACAAGTGGCACACACACATTATAACTAATT [CACACA_site9048] | 10.2 ± 0.2
TTCTAACTTTTAAACACACAAATATAAATAAGTATA [CACACA_site7473] | 9.91 ± 0.12
TATATACACAAACACACACACACATACACCCACATA [CACACA_site8504] | 10.5 ± 0.5
TATGTAGTCACAAGGTGTACACTTTAACAAATTATG [XGTACX_site8792] | 11.5 ± 0.88
TGCAAGCTTATATAGGTGCACATGTATACGTGTTCA | 10.3 ± 0.26
TTGATGTTGGTAGGATGTACGGTACCGGTAAAGTTT [XGTACX_site7705] | 11.1 ± 0.69
TTTTTAATTTTTTGTTGTACATATAATATATTATTA [XGTACX_site4903] | 11.3 ± 0.63
TGTATGAAATATATTACACACATATAAAATCTATAT [CACACA_site6514] | 9.805 ± 0.078
TATATAATTATAAGAACACACATATATATATATATA [CACACA_site2472] | 10.3 ± 0.4
AAATTTGAAGAATATTGTACGCATAATAATTAAATA [XGTACX_site4300] | 11.5 ± 0.95
AAGCTTCATTAATATACACACATATATGCGTATATT [CACACA_site3695] | 9.93 ± 0.028
ATGCTTTTTAAATGATTGCACTAGATTGTAATATGT [GTGCAC_site9666] | 10.02 ± 0.099
TATATATATATTTTAACACACACATATATATATTTA [CACACA_site8892] | 9.875 ± 0.078
ATATATATATATTGCACACACAATTATTATTATTAT [CACACA_site2299] | 10.3 ± 0.37
TTATAGAATTTATTTACACACAAACATTTATACTTT [CACACA_site7592] | 10.1 ± 0.16
TATTTATTTTCATATAGTACTTTTTTCAGGCATATA [XGTACX_site6691] | 11.2 ± 0.66
ACTCCATAATATTGATGTACTATAATGCATTTATTT [XGTACX_site5562] | 10.9 ± 0.58

Sequence | gcPBM binding intensity (ln)
TTTATTTATGTTGAAACATGCAAAAAGTTATTTATA [TGCATGCA_site716] | 9.87 ± 0.23
TTCAAAAGCCGGATAACATGCAGTAGTAGAACAAAC [TGCATGCA_site413] | 10.15 ± 0.057
TTTTATTTCTTTGCACCATTTTAAATACAAACAAAT [CACACA_negctrl_site1553] | 10.5 ± 0.33
TAAAACAATACTTTGTGCTTCTCTGGTTTTTTTTTT [GTGCAC_negctrl_site284] | 9.81 ± 0.2
GCTTTTAAAATAATTGGTACACATGTATAAATTCAA [XGTACX_site2327] | 11.1 ± 0.69
AGTATTCACTTAATATGTACATATTTATTATAAGAG [XGTACX_site3434] | 11.3 ± 0.68
TTTCTGTGTTTTGGTTGTACACACGCTACATTATAT [XGTACX_site5669] | 11.4 ± 0.71
TTGTTTTTTTTTTCTATAAGCATAAAAATGATATAA [XGTACX_negctrl_site356] | 9.68 ± 0.23
TTTATTTATTATTAAAGTACTAAATCATATAATTAT [XGTACX_site5727] | 10.8 ± 0.71
AAATTAAAAAAATAATGTACATGTATTTATTATGTA [XGTACX_site2419] | 11.1 ± 0.6
TGGTATATAAAACACACACACATATGTATTTATATA [CACACA_site4665] | 10.12 ± 0.092
TTTTGCCTTTCTACTTGTACTTAAAATATTATAATT [XGTACX_site5483] | 11.2 ± 0.83
ATTCTAAATAATAAGAGTACAAATAATATGGAGAAG [XGTACX_site5209] | 11.2 ± 0.53
CACAAAAAGAAACACACACACATATATATATATATA [CACACA_site999] | 10.2 ± 0.59
GAAAATATGTAATAGTGTACACATATATATGTATAT [XGTACX_site306] | 11.6 ± 1
TGCTCATTCCTGTCATGTACATATTATATATATATA [XGTACX_site6890] | 11.3 ± 0.99
ATATGAACATTTACATGTACATGTAAATGTAACACT [XGTACX_site4574] | 11.2 ± 0.78
CATTTTTTAATAATAGCACACAGGACATACAAAACA [CACACA_site1245] | 10.8 ± 0.41
AAAATATAAAGTATTTGTACATAATATATTTTTAAA [XGTACX_site3494] | 10.7 ± 0.45
AATATATAAATAAATATATAAATAAATAATTGAAGC [CACACA_negctrl_site348] | 9.85 ± 0.099
